This note sets out measurements from the supplement of paper PMC11417369.

Some of the results follow.

The test system of the assay is PfSIP2 AP2 domain 1 (GST-tagged). Put plainly: gcPBM binding intensity (ln(normalized median fluorescence intensity)); higher = stronger DNA binding. The procedure, abridged: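 Using an Agilent 4 × 180k array, primer-extended double-stranded 36-bp intergenic genomic probes and negative controls were exposed for 1 h to GST-fused P. falciparum DNA-binding domains expressed in E. coli. Binding was carried out in 1× PBS with 1% milk, 0.2 mg/ml BSA, 0.5% salmon testes DNA and 0.03% Triton X-100, and protein was detected with Alexa488 anti-GST antibody and a 488 nm scan. Binding intensity is the highest Masliner-normalised natural-log median intensity across replicate spots of either probe orientation.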
For “TATCATCATGTATGTACACACATACCTATATTATGT [CACACA_site6768]”, the “gcPBM binding intensity (ln)” value stood at 7.18.

Turning to “TGTATAAAACATGGGTGTACTGAACTCAATCATATA [XGTACX_site1215]”, the “gcPBM binding intensity (ln)” value is 6.97.

As for “AAAAGTAACAAAGCTACACACATTTAAATAAACATA [CACACA_site1421]”, the “gcPBM binding intensity (ln)” value worked out at 6.94.

On to “AAAATAACAAAATAAAGTACTTTTAAAAGATATAAT [XGTACX_site7632]”, for which the “gcPBM binding intensity (ln)” value worked out at 6.9.

With “GATTTTCTAATTTCTACACACATATAAGAATATTCA [CACACA_site7340]”, the “gcPBM binding intensity (ln)” value is 7.08.

As for “TTTTTAATTCAAACAATAATATGTTATATTTCAAAT [TGCATGCA_negctrl_site27]”, the “gcPBM binding intensity (ln)” value was found to be 6.63.

Take “TTTTTTTTTCCTTCTTGTACATATTATATATACATA [XGTACX_site5988]”: the “gcPBM binding intensity (ln)” value turned out to be 7.09.

On to “TGGAACGTAATAAAATGTACATACGTTTTTCATATG [XGTACX_site6229]”, for which the “gcPBM binding intensity (ln)” value was found to be 6.85.

In the case of “TTTTTTTTTTTTTGTACATGCAAATATTATGAACAC [TGCATGCA_site571]”, the “gcPBM binding intensity (ln)” value is 7.34.

As for “AACACATACATATATGCACACATTTTATTCCATTAT [CACACA_site2834]”, the “gcPBM binding intensity (ln)” value stood at 8.05.

In the case of “GACAAATTAATCGATTGTACACAATTTGTTTCGTTG [XGTACX_site35]”, the “gcPBM binding intensity (ln)” value worked out at 6.87.

Take “TTCACATATATATAACGTACATTATTATTATTCTGA [XGTACX_site6006]”: the “gcPBM binding intensity (ln)” value amounted to 7.09.

For the sequence “TCTTATTTAATTAAACAAAAGAAAAAGAAAGAAAAG [CACACA_negctrl_site1569]”, the “gcPBM binding intensity (ln)” value was found to be 7.03.

Take “TACAAGTATAAATAAGCACACATGTGTATATGTACA [CACACA_site7911]”: the “gcPBM binding intensity (ln)” value was 7.03.

Consider TTAGAAGGGATTAAAGTGCAAAATAGGATTAGAGTA, for which the “gcPBM binding intensity (ln)” value was determined as 7.71.

Turning to “TTTTTTTTTTTTTTAACACACATATAAATATTTTTC [CACACA_site6985]”, the “gcPBM binding intensity (ln)” value amounted to 6.99.

With “AAAGTTTTAAGAAAATGTACATAAGTATACATATAT [XGTACX_site1293]”, the “gcPBM binding intensity (ln)” value is 6.92.

For the sequence “TTTTTCTATTCCATTCAACACACAAAAATGTATGCT [CACACA_site8268]”, the “gcPBM binding intensity (ln)” value turned out to be 7.06.

“TGCATTTTACTTGTTACACACATATAAAATTAACCA [CACACA_site7387]”: the “gcPBM binding intensity (ln)” value was 7.11.

Take “ATTCTTGTTATATAAGGTACAGAACAAAATATAAAA [XGTACX_site5510]”: the “gcPBM binding intensity (ln)” value was 7.21.

For the sequence “TTTGGGATAAAACAAAGTACTAACAAAATATATAAT [XGTACX_site8240]”, the “gcPBM binding intensity (ln)” value came to 7.07.

Regarding “AAATGGAGTTAATATTGTACATATATATATATATAT [XGTACX_site5452]”, the “gcPBM binding intensity (ln)” value came to 9.57.

Take “TTTTATAAATATTTTTGTACACATTTAAATATTATT [XGTACX_site4973]”: the “gcPBM binding intensity (ln)” value came to 7.02.

As for “TTTTCATATATTTATTGTACATATTACATATATAAT [XGTACX_site2425]”, the “gcPBM binding intensity (ln)” value was 7.18.

As to “ATTTATAAATCAAAGTGTACATATGTTTTATTTTTT [XGTACX_site804]”, the “gcPBM binding intensity (ln)” value turned out to be 7.11.

Turning to “AGAGAGAACGGTATAACATGCAATAAATTTCAGAAG [TGCATGCA_site423]”, the “gcPBM binding intensity (ln)” value came out at 6.74.

For “TTTTTTTAATAAAAGTGTACCAAATTATATACACAT [XGTACX_site6811]”, the “gcPBM binding intensity (ln)” value stood at 7.13.

On to “TTTTATTATATGGAGGTGCATATATAATAATATAAT [GTGCAC_site9477]”, for which the “gcPBM binding intensity (ln)” value was 11.

In the case of “ATCGGTAATATTAACACACACATTTATTTATATTTA [CACACA_site6638]”, the “gcPBM binding intensity (ln)” value came to 7.01.

Turning to “TTCTTTTTAAATATACTAATTATGTATAAAACAGAA [GTGCAC_negctrl_site131]”, the “gcPBM binding intensity (ln)” value is 7.01.

Regarding “ATGTATGTAATAAAAAGTACATATGTTCATAATAAA [XGTACX_site842]”, the “gcPBM binding intensity (ln)” value was determined as 7.06.

Turning to “TATACAATATTTATAACACACATATTTATATAAACT [CACACA_site6932]”, the “gcPBM binding intensity (ln)” value was 7.

Take “AGAACATTTTCTCAGTGTACTTATATATTTGACATA [XGTACX_site6541]”: the “gcPBM binding intensity (ln)” value is 7.15.

For “ACTAAACAATATGTATGTACATATTTTACATATAAT [XGTACX_site3318]”, the “gcPBM binding intensity (ln)” value came to 7.19.

Consider “ACTTCCTATATTTATGCATGCATTTTATTAAAAAAT [TGCATGCA_site747]”, for which the “gcPBM binding intensity (ln)” value was determined as 7.99.

With “ATATATCATGAACCTTGTACGTATATATATATATAT [XGTACX_site239]”, the “gcPBM binding intensity (ln)” value came to 9.79.

Turning to “GATGGAATCTAATTTACATGCAGTGATATAATAAAT [TGCATGCA_site1031]”, the “gcPBM binding intensity (ln)” value is 7.

In the case of “TAATAATAACCGTTATGTACACAATTTTGTGAACAT [XGTACX_site8053]”, the “gcPBM binding intensity (ln)” value stood at 6.93.

As for “ATTTATTTATTTATATGTACATATATATATATATAT [XGTACX_site339]”, the “gcPBM binding intensity (ln)” value stood at 9.54.

For the sequence “TACAGACAGAAACACACACACACGCATAAAAAAAAA [CACACA_site1514]”, the “gcPBM binding intensity (ln)” value was 7.33.

“GTTAAGTGTATATATACACACATATGTAATACATGA [CACACA_site3048]”: the “gcPBM binding intensity (ln)” value stood at 7.09.

On to “ATATGTAGAATAAAAAAAAAAAAAAAAAAAAAAAAT [CACACA_negctrl_site621]”, for which the “gcPBM binding intensity (ln)” value is 6.9.

In the case of “TAATTAAAATTATATATTAGAAAAAACATATAAAAC [CACACA_negctrl_site190]”, the “gcPBM binding intensity (ln)” value was 6.98.

With “TAAAAATATATGTATACACACATATATATATATATA [CACACA_site3951]”, the “gcPBM binding intensity (ln)” value is 9.33.

With “AAAAAAAGTGACTCCTTACACACTTTACATAATTTA [CACACA_site820]”, the “gcPBM binding intensity (ln)” value worked out at 6.81.

On to “AATATTGAAATAACGCGTACAAAAAAAAGTTATATT [XGTACX_site6559]”, for which the “gcPBM binding intensity (ln)” value was 6.9.

For “ATGTTATATTATAAAAGTACATTTTATTTTTATTTA [XGTACX_site4365]”, the “gcPBM binding intensity (ln)” value was 7.14.

With “ATTTCCTTTTTCTGTTGTACTCATAAAATAATATGT [XGTACX_site7234]”, the “gcPBM binding intensity (ln)” value came out at 7.47.

As for “TTAATTTATAAAAACACACACAGGTAAAAAGGTGCA [CACACA_site1177]”, the “gcPBM binding intensity (ln)” value was 9.31.

“AATATAACTTTTTGCACACTTAATTTTTTTTTTTAA [CACACA_site3365]”: the “gcPBM binding intensity (ln)” value turned out to be 7.38.

As to “TAACAAAAAGCACTTAGTACATATATATATATATAT [XGTACX_site1099]”, the “gcPBM binding intensity (ln)” value is 9.43.

Turning to “TATATTTATTATAACACACACATATTTATATTATAG [CACACA_site6628]”, the “gcPBM binding intensity (ln)” value came to 6.91.

Regarding “TTTCTTTTTAAATATATACACACCGGGTGTACATAT [CACACA_site3345]”, the “gcPBM binding intensity (ln)” value turned out to be 6.78.

Consider “AGGTAATATACTAAATGTACAGAAAAACGAATTTTT [XGTACX_site2977]”, for which the “gcPBM binding intensity (ln)” value stood at 6.81.

In the case of “AATGAAATAATACAATGTACGTTAAAAAAAAATAAA [XGTACX_site7928]”, the “gcPBM binding intensity (ln)” value came to 6.93.

Take “TAATATCAAACCTATAGTACATAAGGTATAAAAAAG [XGTACX_site3533]”: the “gcPBM binding intensity (ln)” value was 7.

As for “GTATTATTTTATGATGCATGTGTATTTCATATATGC [TGCATGCA_site660]”, the “gcPBM binding intensity (ln)” value turned out to be 6.98.
